± gives the standard deviation of the averaged measurements. Some of the results follow.
Test system: PfAP2-G AP2 domain (GST-tagged)
Test: gcPBM binding intensity (ln(normalized median fluorescence intensity)); higher = stronger DNA binding
Procedure, shortened: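 The highest Masliner-normalised natural-log median intensity across replicate spots of either probe orientation is reported as binding intensity. GST-tagged P. falciparum DNA-binding domains expressed in E. coli were applied for 1 h to an Agilent 4 × 180k array of primer-extended double-stranded 36-bp intergenic genomic probes plus negative controls, and bound protein was detected with Alexa488 anti-GST antibody and scanned at 488 nm.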

| Sequence | gcPBM binding intensity (ln) |
| --- | --- |
| TTCCCTTTTTTTATTTGTACTTATCTTTTAAATAAT [XGTACX_site2497] | 11.2 ± 0.67 |
| GATGATAAAATATGTACACACAGTTTATACATTTTG [CACACA_site4055] | 11.3 ± 0.76 |
| AATATTACAAAATATTGTCCGTACAAATTTTTAATA [XGTACX_site8129] | 11.4 ± 0.81 |
| AAAAAAAAAAAAAAGACACACATATATATATATATA [CACACA_site633] | 10.1 ± 0.16 |
| TTTAGATATATGGTAGTGCATAATAAAAATATAGCC [GTGCAC_site9449] | 10.4 ± 0.26 |
| CACTCCATATTATACACACACACAAATGAAAAAAAT [CACACA_site3019] | 10.2 ± 0.34 |
| ATATACATATATATGGGTACATATATTAATATATAT [XGTACX_site8358] | 11.1 ± 0.81 |
| TTAACATATTATAAGTGTACATATTTATAAACAAGA [XGTACX_site8806] | 11.4 ± 0.8 |
| ATTTTGAAAAATAAAAGTACATATAATATATCTACA [XGTACX_site7185] | 11.2 ± 0.88 |
| TCTGTTAATATTTATACACACATATTTATTTATATA [CACACA_site6658] | 9.955 ± 0.049 |
| TATATTGAATGCAAAAGTACATTTGTGTAAATTTAT [XGTACX_site7611] | 11 ± 0.5 |
| ACTACATTATTGCATTGTACTTTTTTTTTTTTTTTA [XGTACX_site4605] | 11.4 ± 0.85 |
| TTAAAAATTATATAAGTGCATTAATATTTAGAACAA [GTGCAC_site9773] | 10.2 ± 0.47 |
| AAAATATATTAAGGCACACACATACATATATATATA [CACACA_site3723] | 10.2 ± 0.31 |
| GAGTTAATATTTAAAAGTACAAGATGAATGTAAAAA [XGTACX_site5810] | 11.3 ± 0.78 |
| TTTTTGTATTCTACCTTAACAATCTTAAAGATTTTT [CACACA_negctrl_site1157] | 9.97 ± 0.11 |
| TTTTTTTTTTTAAAATGTACACGTAATTACATATAT [XGTACX_site752] | 11.4 ± 0.95 |
| TGATGGTTACGTTTATGTACACATTACAGTTAGTAT [XGTACX_site998] | 11.6 ± 1.2 |
| TTAAAAATATATGAATGTACATATATTTATATATAT [XGTACX_site77] | 10.8 ± 0.52 |
| TACTTACCAAAATACACACACACACCCAATATATAA [CACACA_site1871] | 10.3 ± 0.2 |
| TATATATTATTTAAAACACACAAAAAAAAAAATTAT [CACACA_site89] | 9.895 ± 0.021 |
| TTTTTTTTATTAGTGTGTACGCATTTATTTATACAT [XGTACX_site1599] | 11.7 ± 0.88 |

| Sequence | gcPBM binding intensity (ln) |
| --- | --- |
| TTTAAATTATGAAATTGTACATATAAAAATATTTTA [XGTACX_site4796] | 10.9 ± 0.54 |
| TATATAAACATACATACACACATACAATAAGTAAAA [CACACA_site5118] | 10.2 ± 0.28 |
| CACCCACTAATAAACACACACATATATATATATATA [CACACA_site389] | 10.2 ± 0.33 |
| ATTTTTTTTATTCAATGTACTTTTTTTTATATATAT [XGTACX_site4978] | 11.5 ± 0.86 |
| TACAAAATATATATGACACACATAAAAAAAAGTATA [CACACA_site1373] | 10.2 ± 0.18 |
| TTTAAAAATGCTACATGTACAAAATAAAATATAATA [XGTACX_site2905] | 11 ± 0.53 |
| ATATATATATATAAAAGTACATGCTTATATATATAT [XGTACX_site3786] | 11.2 ± 0.97 |
| AAGTTTATCACAGCCACGCACACATAATATATGTAT [CACACA_site3670] | 10.1 ± 0.071 |
| AATAAAATGAGATGTTGTACAGTTTTGATATATGCA [XGTACX_site3052] | 11.2 ± 0.61 |
| ATTGTTCTATGATTTGTACACACTTTTTTTTAAAAT [CACACA_site2825] | 11.5 ± 0.88 |
| ACCTAAGAACTATTTACACACATATACAAAATATAT [CACACA_site2459] | 10.2 ± 0.19 |
| AAACGTACATAATACACACACATGTATCCATATAAA [CACACA_site5173] | 11.4 ± 0.94 |
| CATATAAAAATATGCACACACAGGAATACAAACATA [CACACA_site684] | 10.4 ± 0.13 |
| AATAAAAAACTACAATATACAAAATTATTAAATCAA [GTGCAC_negctrl_site703] | 9.56 ± 0.35 |
| TGAACTCACGAGCACACACACACATATATATATATA [CACACA_site8248] | 10.3 ± 0.18 |
| ATATATATATATATATGTACACATATATGTGTTTGT [XGTACX_site62] | 11.4 ± 0.88 |
| TTAATAAACCTTAGATGTACAGTTATATATAAAATA [XGTACX_site6681] | 11.2 ± 0.78 |
| AGCAATTGTGTTTTCACACATAAATATATTCCTCAC [CACACA_site5021] | 9.88 ± 0.13 |
| AATTAAACTCACACCACACACAAAAAAAAAAAAAAA [CACACA_site693] | 10 ± 0.59 |
| GGTCATATTTTTTGCACACAAAAAAAAATATAAAAT [CACACA_site3381] | 10.3 ± 0.2 |
| ATATATATTTTTTAATGTACTTATATTTTTATAATA [XGTACX_site2103] | 11.4 ± 0.79 |
| ATACAATAAAGGTGTACACATATATGATGCAAGATG [CACACA_site5897] | 11.7 ± 0.93 |

| Sequence | gcPBM binding intensity (ln) |
| --- | --- |
| TATTCAGGTCCAATGGTGCAATATATTTTTGTAATA [GTGCAC_site9607] | 10.5 ± 0.47 |
| TAAAAAATAAAATGGACACACACGTTCAAATTTAGA [CACACA_site2083] | 10.8 ± 0.49 |
| GTATGTATGTATGTATGTACTTATGTAGTCTTAGTT [XGTACX_site1710] | 11.3 ± 0.85 |
| AGTGTAGGTATATAAACACACATACAGATATATAAT [CACACA_site4900] | 10.2 ± 0.15 |
| TGTTTATGTATCAATTGTACAAAAAAAAAAAAAAAA [XGTACX_site1590] | 10.8 ± 0.8 |
| TTCAAAAAAATGTATACACACATAAGTATAATATAA [CACACA_site3758] | 10.08 ± 0.057 |
| GATTTTTTTTTTTTTTCACACACTAATAATATTATC [CACACA_site464] | 9.9 |
| TTCAAATATTTTATTTGTACATAAAAAAGAAAGTTA [XGTACX_site8287] | 11 ± 0.68 |
| TAGGAAGAATTACTGTGTACTAAAATATTAAAAAGT [XGTACX_site4909] | 11.4 ± 0.88 |
| CTTATGTGCATACCTACACACTTACAGATATATATA [CACACA_site5622] | 10.2 ± 0.24 |
| ACTTACCCATTTATTACACACATAAAGGAAAATTTT [CACACA_site4873] | 10.4 ± 0.23 |
| TGTAAATAATATAATAGTACGCATATTTTTATTGAA [XGTACX_site284] | 11.4 ± 0.78 |
| ATAAATGAAAAAAAGCGTACATATAAAAAAATATAT [XGTACX_site5063] | 11.6 ± 1 |
| ATTTATAATCAGGGTTGTACACTTATAGAATTTTTA [XGTACX_site4175] | 11.3 ± 0.9 |
| TATATTTATACATATTGTACATTTTATACTTTTACA [XGTACX_site3884] | 10.8 ± 0.4 |
| CATAAGAAAATAAAAACATGCACATAAGAAATATAC [TGCATGCA_site842] | 10.12 ± 0.014 |
| AATCTTCATACCAACACATGCACAAAAGAAATAAAA [TGCATGCA_site563] | 10.3 ± 0.39 |
| ATATAAATATATGGAAGTACACAAAAAAATTAAAAA [XGTACX_site8624] | 11.6 ± 0.76 |
| TATTAAGAATTTACATGTACTTGTTAAATAAGAAAA [XGTACX_site4466] | 11.3 ± 0.73 |
| TTCTATATATTTTAATGTACATATATGATTATTCTT [XGTACX_site8294] | 11.2 ± 0.67 |
| ATATAGTATAATAAAAGTACATTTTGATTTTTTCTC [XGTACX_site1797] | 11.2 ± 0.79 |
| ATTATTAAAAAGATGTAAATAAATGAATATATGCTT [CACACA_negctrl_site539] | 9.81 ± 0.11 |

| Sequence | gcPBM binding intensity (ln) |
| --- | --- |
| GTCGCATTTTATACAAGTACACATGAATTATACAAC [XGTACX_site2200] | 11.4 ± 0.91 |
| TAAATAATATCTATCACACACGCATATATACATATA [CACACA_site2622] | 9.93 ± 0.12 |
| ACTCTTAAAATGTATTGTACATAATTTTTACAAGGG [XGTACX_site6611] | 11.2 ± 0.74 |
| AGGTAGTTCTGTATCACACACATATATATATATATA [CACACA_site2214] | 10.2 ± 0.17 |
| AACATTATAAGACACACACACACATATATATATATA [CACACA_site8259] | 10.2 ± 0.2 |
| GGAGAATAGTGGAAAACACACACGTTTGAGATATGG [CACACA_site1168] | 9.98 ± 0.15 |
| CAAAAACGGAAGTGGTGTACCGATATTATATAAACA [XGTACX_site4962] | 11.1 ± 0.61 |
| TTTTTTTTTTTTACCTGTACATGTCAGCAAACTTTT [XGTACX_site1171] | 11.1 ± 1 |
| TTTCCATTATGATATAGTACATAAATATATGTAATA [XGTACX_site6992] | 11.1 ± 0.7 |
| TTGTGTGTATGTATACATATATATATTGAGACGAAT [TGCATGCA_negctrl_site382] | 10.17 ± 0.099 |
| ACTATAAATATATAAATATATATATATATATATATA [GTGCAC_negctrl_site65] | 9.91 ± 0.59 |
| AAAAAAAATATATAAACACACATATTTATATACTCA [CACACA_site4984] | 9.665 ± 0.092 |
| ACATATAATAAAAAATGTACACACATAAGAAAATTT [XGTACX_site6153] | 11.2 ± 0.7 |
| TAATATCATTTATATTGTACTATAACAAAATCTATA [XGTACX_site7700] | 10.8 ± 0.59 |
| TAAATACACTGTAGCGCACACGGCCAAAAAAAAAAA [CACACA_site1818] | 10.6 ± 0.4 |
| TACTATCTATACAATACACACAAAAAAAAAAAAATA [CACACA_site3981] | 10 ± 0.52 |
| TTATTATCCTATATTTCTTTTCCTTCTTCAAAATTA [CACACA_negctrl_site1314] | 9.56 ± 0.028 |
| ATAAATAAGATACGTACACACATATACAAAATATAC [CACACA_site3661] | 11.5 ± 0.95 |
| TATGTCAATTTTCATACATGCGCATAATCTTTATTT [TGCATGCA_site807] | 9.94 |
| AAAGTTTTTATACATACACACCTATAAATTAAGTGC [CACACA_site7198] | 9.88 ± 0.12 |
| GAAAGAATAAAATAAACATGCAAATAAAACATAAAA [TGCATGCA_site471] | 9.81 ± 0.2 |
| TATAAAACCCTACTGTTTCTTCTTTATTGATATATT [TGCATGCA_negctrl_site285] | 9.75 ± 0.13 |

From the supplement of paper PMC11417369
